# In the supplement of paper PMC4166925:
# ± gives the standard deviation of the averaged measurements. Whole data set: some 33,000 sequences, median “E-score (dimensionless, -0.5 to 0.5)” near -0.049, cut for the highest 2% near 0.37. The list shows a part of the results.
# Tested on: T1, PmTbr T-box DNA-binding domain (GST fusion)
# T1 sequence: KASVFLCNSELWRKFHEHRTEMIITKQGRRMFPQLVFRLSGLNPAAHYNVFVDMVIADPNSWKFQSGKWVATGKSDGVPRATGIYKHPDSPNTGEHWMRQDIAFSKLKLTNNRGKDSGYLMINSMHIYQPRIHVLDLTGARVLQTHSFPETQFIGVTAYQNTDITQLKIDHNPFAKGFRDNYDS
# Test: PBM E-score of 8-mer (E-score (dimensionless, -0.5 to 0.5)); Tbr is Tbrain of the sea star Patiria miniata (Pm) or the sea urchin Strongylocentrotus purpuratus (Sp); higher = stronger binding preference; most listed sequences are background and not binding sites
# Conditions: the construct has about 5 more residues each side
# Description: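 Universal protein-binding microarray (Agilent AMADID 016060, 60-bp probes with a 35-bp variable region) incubated with 200 nM GST-fused Patiria miniata Tbr T-box DNA-binding domain (residues 272-466) in PBS pH 7.5. Scored for every ungapped 8-mer (given with its reverse complement) by the Universal PBM Analysis Suite as E-score (modified Wilcoxon-Mann-Whitney enrichment, range -0.5 to 0.5; >0.45 counts as bound) and Z-score of median probe intensity. Two replicate arrays (datasets 1 and 2).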
# 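Further: 200 nM protein in PBS on universal arrays averaged over duplicate arrays.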
row,Sequence,PBM E-score of 8-mer
1,AGCCAGTC,-0.0565 ± 0.013
2,AGAAGCGG,-0.0886 ± 0.016
3,AGTATGAA,-0.247 ± 0.075
4,AGTTTGAG,-0.146 ± 0.046
5,GCAGTCGC,-0.00368 ± 0.029
6,GGCCGTGA,0.109 ± 0.00065
7,ATAGGGGA,-0.275 ± 0.012
8,GACGTTGC,0.0262 ± 0.013
9,ATATCATA,-0.0109 ± 0.041
10,ATATGCGC,0.0237 ± 0.1
11,ATGAGGCA,-0.141 ± 0.065
12,CTTATAGC,-0.0766 ± 0.031
13,CATCCAAC,-0.02 ± 0.0088
14,AGGTACCC,-0.213 ± 0.093
15,AAGTCCCC,-0.189 ± 0.0086
16,CATAGTAG,-0.286 ± 0.031
17,CTATGAGC,-0.0478 ± 0.0082
18,TAGCTAGA,-0.038 ± 0.022
19,AAGTACGG,-0.174 ± 0.029
20,AACCCGGG,-0.175 ± 0.057
21,GAGGGTGA,0.279 ± 0.005
22,CGGCACCG,0.0968 ± 0.041
23,AATGCCGC,-0.00673 ± 0.092
24,CACGACTC,0.17 ± 0.0075
25,GAACAACC,-0.0331 ± 0.022

row,Sequence,PBM E-score of 8-mer
1,CAAACTTG,0.035 ± 0.026
2,CAATGCTC,-0.299 ± 0.038
3,ATTGTAAG,-0.12 ± 0.062
4,CCACAAGG,-0.122 ± 0.046
5,GCGGATCC,-0.0974 ± 0.014
6,AATTCATG,0.0832 ± 0.065
7,CCACTAGC,0.0972 ± 0.082
8,CACCGATC,0.138 ± 0.051
9,CAATGCCC,-0.0602 ± 0.0035
10,AGGTGAAA,0.347 ± 0.022
11,ACTCACAA,0.1 ± 0.01
12,GAACGCGC,0.0649 ± 0.023
13,AGAGTGGA,-0.115 ± 0.077
14,GCGACGAC,0.175 ± 0.045
15,GCCGTTCA,-0.0278 ± 0.0069
16,GAGACCTA,-0.16 ± 0.033
17,CCATAGAG,-0.173 ± 0.023
18,ACCACAAT,-0.0998 ± 0.059
19,ATGCCGAC,0.0808 ± 0.019
20,GCCGCCGC,-0.149 ± 0.089
21,ATGGGGAC,-0.235 ± 0.033
22,ACCTCTCA,0.267 ± 0.034
23,CTACTAAC,0.169 ± 0.017
24,CAAAGACG,0.144 ± 0.014
25,AACGCCAC,0.253 ± 0.026

row,Sequence,PBM E-score of 8-mer
1,CATGATTA,-0.115 ± 0.049
2,AAAGCAGC,-0.00106 ± 0.013
3,CTCATCGA,-0.173 ± 0.021
4,ACTACCCG,-0.0752 ± 0.029
5,CAAGACAG,-0.0983 ± 0.038
6,AGACGGTG,0.0205 ± 0.033
7,CAGCAATG,0.178 ± 0.039
8,CTACCTTC,-0.0424 ± 0.013
9,ACGAGTTC,0.0367 ± 0.01
10,CCCAGCGA,-0.0742 ± 0.03
11,ACACAGAT,0.0624 ± 0.058
12,GGCCAACA,0.0288 ± 0.058
13,CAATCGAC,0.102 ± 0.015
14,ACGAGAGT,-0.0209 ± 0.093
15,AGGTTTCC,-0.109 ± 0.03
16,GTTATTTA,-0.0965 ± 0.028
17,AGCTTAGC,-0.0359 ± 0.0015
18,AAAGCTGA,-0.146 ± 0.037
19,ATGAATAG,-0.127 ± 0.053
20,AGAGGAAC,-0.288 ± 0.0084
21,CTCCTCCA,-0.0795 ± 0.023
22,CCCTTAGG,0.026 ± 0.015
23,GTGAAAAA,0.336 ± 0.054
24,AGCGTTAG,0.207 ± 0.014
25,ATGAACAG,-0.0699 ± 0.013

row,Sequence,PBM E-score of 8-mer
1,ACTGACAG,0.19 ± 0.015
2,CAGGCGTC,0.254 ± 0.0077
3,CCATAATC,-0.225 ± 0.05
4,AGGCTGAC,0.141 ± 0.052
5,ATGCCGTG,-0.116 ± 0.1
6,AAGCTAGC,0.036 ± 0.064
7,CAGAGAAG,-0.145 ± 0.04
8,GGAATAGA,-0.269 ± 0.15
9,AAGGGTAT,-0.164 ± 0.026
10,GAAGTTGA,0.0232 ± 0.0042
11,CGACCGAA,-0.241 ± 0.048
12,AGATCTAA,-0.0476 ± 0.065
13,AGAGTGCG,0.288 ± 0.046
14,GCCCGTAA,-0.225 ± 0.044
15,CGCCACTA,0.238 ± 0.018
16,CGGAGACG,-0.205 ± 0.048
17,CGAACTGA,-0.0267 ± 0.019
18,TCCACAGA,-0.13 ± 0.045
19,GAACTCCA,-0.0288 ± 0.045
20,CGCCTAAG,0.0221 ± 0.02
21,ATCGTGCG,0.159 ± 0.055
22,CCAAGTCG,0.103 ± 0.048
23,GCAGATAA,0.0232 ± 0.027
24,AATTATGA,-0.155 ± 0.0028
25,AGCTTACG,-0.171 ± 0.071

row,Sequence,PBM E-score of 8-mer
1,CCCACCTC,0.2907 ± 0.0021
2,GAGACAGC,0.0107 ± 0.051
3,GCCGCTGA,-0.113 ± 0.074
4,AATGCTGA,-0.04853 ± 0.00042
5,GTATAAGA,-0.152 ± 0.019
6,GACCCTCA,-0.0733 ± 0.018
7,ATATACGC,-0.0645 ± 0.11
8,CGAAGTCC,0.047 ± 0.062
9,TGCCCGCA,-0.111 ± 0.027
10,ATTCTCTG,-0.174 ± 0.12
11,AGTTATCA,0.23 ± 0.017
12,CGCCTCCG,0.198 ± 0.041
13,GAGCTATA,-0.0341 ± 0.048
14,AGAACTAT,-0.19 ± 0.0047
15,TGTATCAA,-0.0371 ± 0.041
16,ACCCGAGC,-0.00295 ± 0.055
17,GCCAGACA,-0.0878 ± 0.03
18,AGTGCTGG,-0.0402 ± 0.1
19,CTACTGAC,0.111 ± 0.032
20,ATACCGGG,-0.18 ± 0.062
21,GGTGTCAC,0.481 ± 0.0062
22,ACAAACTG,-0.0233 ± 0.013
23,AGGCGAGG,0.184 ± 0.027
24,CGGGAAGA,-0.147 ± 0.021
25,ATGTTATC,0.121 ± 0.0061

row,Sequence,PBM E-score of 8-mer
1,AAAAACAG,-0.19 ± 0.027
2,AGGCAAAT,-0.324 ± 0.053
3,AGCAATAA,-0.195 ± 0.065
4,GACTTGCA,0.197 ± 0.014
5,TCGACCCA,-0.0384 ± 0.048
6,ATGCATGC,-0.32 ± 0.085
7,AACGGAAC,0.0218 ± 0.0039
8,AGATCGCT,-0.135 ± 0.035
9,ATTCAAAT,-0.112 ± 0.087
10,CTCGCTAA,0.3143 ± 0.00076
11,ATTACGGG,-0.213 ± 0.066
12,AGTTGTAT,-0.0326 ± 0.042
13,TAAGATCA,-0.183 ± 0.0042
14,GCAAGCCA,-0.221 ± 0.037
15,GAATATGC,-0.192 ± 0.012
16,GAGCGTTA,0.0731 ± 0.02
17,ATTGGCAC,0.385 ± 0.0064
18,GATACGGA,0.0848 ± 0.025
19,CTACGGAC,-0.212 ± 0.021
20,AGACACCA,0.2603 ± 0.00061
21,CCTGTTGA,0.091 ± 0.045
22,AGAGTACA,-0.224 ± 0.032
23,ACCCCGCA,0.0949 ± 0.025
24,AAGATCAA,-0.348 ± 0.034
25,GACACTAA,0.293 ± 0.0056

row,Sequence,PBM E-score of 8-mer
1,GATCTCAC,0.336 ± 0.012
2,CCGACTAA,-0.138 ± 0.054
3,ATCTATGC,-0.21 ± 0.016
4,TCTCGTCA,0.226 ± 0.0041
5,GTTGCAAA,0.211 ± 0.036
6,AATTAATC,-0.246 ± 0.048
7,AATAGCCA,-0.109 ± 0.0071
8,AGGGTCTC,-0.201 ± 0.014
9,CTGCATGC,-0.176 ± 0.0035
10,CTCCGCGC,-0.0982 ± 0.14
11,AGTGCCTC,-0.136 ± 0.0055
12,CGCGATAG,0.2514 ± 0.0021
13,AACAGCCC,-0.015 ± 0.027
14,ATCGTACG,-0.176 ± 0.0019
15,AAACGCAC,0.1473 ± 0.0014
16,GAGAACTC,0.022 ± 0.075
17,CCCAGGTA,-0.102 ± 0.03
18,CCCCTCGA,0.0588 ± 0.073
19,CAATGGGC,-0.0947 ± 0.0019
20,GCTTATAC,-0.236 ± 0.077
21,AGAGAGTA,-0.12 ± 0.049
22,TCTGGAAA,-0.131 ± 0.019
